Results: the BET-seq Pho4 binding data (Le et al. 2018)
This is one part of the list. Values were computed here from the reads of four pooled replicates and scatter widely.

Biological target: T1, Pho4 (S. cerevisiae) (UniProt P07270)
T1 sequence: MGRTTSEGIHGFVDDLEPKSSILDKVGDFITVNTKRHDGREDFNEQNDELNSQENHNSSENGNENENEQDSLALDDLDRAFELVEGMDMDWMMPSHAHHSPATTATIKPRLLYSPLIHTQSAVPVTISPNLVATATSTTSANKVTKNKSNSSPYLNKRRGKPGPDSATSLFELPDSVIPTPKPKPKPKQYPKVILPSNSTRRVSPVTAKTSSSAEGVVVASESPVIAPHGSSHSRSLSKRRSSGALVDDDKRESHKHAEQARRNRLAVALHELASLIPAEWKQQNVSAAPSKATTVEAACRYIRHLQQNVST
Assay: relative binding free energy (BET-seq); higher = weaker binding
Conditions: reference: library average

Q: For ACCGTCACGTGGTGGG, which “relative binding free energy” value is on record?
A: 0.03 kcal/mol

Q: How did the “relative binding free energy” value turn out when GAGTTCACGTGTGTTG was run?
A: 0.43 kcal/mol

Q: AGTATCACGTGGATTA was tested. Which “relative binding free energy” value did it give?
A: 0.08 kcal/mol

Q: How did the “relative binding free energy” value turn out when TTTGACACGTGTTAGT was run?
A: -0.01 kcal/mol

Q: For AGTTGCACGTGAGCGT, which “relative binding free energy” value is on record?
A: 0.22 kcal/mol

Q: Which “relative binding free energy” value does the source give for AAGGACACGTGGAGTA here?
A: 0.01 kcal/mol

Q: Which “relative binding free energy” value does the source give for AAGTTCACGTGAAAGG here?
A: 0.42 kcal/mol

Q: With TGGTACACGTGCATTT as the sequence, how does the “relative binding free energy” value read?
A: 0.07 kcal/mol

Q: How did the “relative binding free energy” value turn out when TGGTTCACGTGAGACA was run?
A: 0.42 kcal/mol

Q: Which “relative binding free energy” value does the source give for TGCGTCACGTGGTCGG here?
A: -0.05 kcal/mol

Q: Which “relative binding free energy” value does the source give for AGGGGCACGTGAACGG here?
A: 0.09 kcal/mol

Q: TGGTGCACGTGTCGAT was tested. Which “relative binding free energy” value did it give?
A: 0.01 kcal/mol

Q: With CTCTGCACGTGGGGCG as the sequence, how does the “relative binding free energy” value read?
A: -0.18 kcal/mol

Q: How did the “relative binding free energy” value turn out when TGGTTCACGTGGAGTG was run?
A: 0.26 kcal/mol

Q: How did the “relative binding free energy” value turn out when GGGCGCACGTGGCGCG was run?
A: -0.29 kcal/mol

Q: GACTGCACGTGAGGGT was tested. Which “relative binding free energy” value did it give?
A: 0.3 kcal/mol

Q: For ATGGTCACGTGAATTT, which “relative binding free energy” value is on record?
A: 0.26 kcal/mol

Q: TTTAACACGTGTGGAA was tested. Which “relative binding free energy” value did it give?
A: 0.15 kcal/mol

Q: Which “relative binding free energy” value does the source give for GTTGTCACGTGGGCTA here?
A: -0.03 kcal/mol

Q: How did the “relative binding free energy” value turn out when TATGCCACGTGGTGAG was run?
A: -0.13 kcal/mol

Q: TCATTCACGTGCTGTG was tested. Which “relative binding free energy” value did it give?
A: 0.19 kcal/mol

Q: Which “relative binding free energy” value does the source give for TCATTCACGTGTCGGG here?
A: 0.36 kcal/mol

Q: How did the “relative binding free energy” value turn out when CGTGGCACGTGGCGGA was run?
A: -0.1 kcal/mol

Q: With TGGAGCACGTGGCAGA as the sequence, how does the “relative binding free energy” value read?
A: -0.14 kcal/mol

Q: How did the “relative binding free energy” value turn out when TAGTGCACGTGATTGG was run?
A: 0.01 kcal/mol

Q: With GCCTTCACGTGGGGGA as the sequence, how does the “relative binding free energy” value read?
A: 0.29 kcal/mol

Q: GAGTACACGTGGTGCA was tested. Which “relative binding free energy” value did it give?
A: 0.03 kcal/mol

Q: TTATACACGTGCTTGG was tested. Which “relative binding free energy” value did it give?
A: -0.1 kcal/mol

Q: TGTTACACGTGTTATC was tested. Which “relative binding free energy” value did it give?
A: 0.15 kcal/mol

Q: For TGTTTCACGTGTCGGA, which “relative binding free energy” value is on record?
A: 0.25 kcal/mol

Q: For ATAGTCACGTGGTGAA, which “relative binding free energy” value is on record?
A: 0.07 kcal/mol

Q: How did the “relative binding free energy” value turn out when ATTTTCACGTGGCGAT was run?
A: 0.2 kcal/mol

Q: TTTGGCACGTGGGGTA was tested. Which “relative binding free energy” value did it give?
A: -0.26 kcal/mol

Q: TTTTTCACGTGATCAA was tested. Which “relative binding free energy” value did it give?
A: 0.22 kcal/mol

Q: How did the “relative binding free energy” value turn out when GTAAGCACGTGAAGTG was run?
A: 0.25 kcal/mol

Q: For CGGCTCACGTGATGTG, which “relative binding free energy” value is on record?
A: 0.32 kcal/mol

Q: For AGGAGCACGTGGGAAT, which “relative binding free energy” value is on record?
A: -0.08 kcal/mol

Q: For GGTTACACGTGGTAGC, which “relative binding free energy” value is on record?
A: 0.12 kcal/mol

Q: For AGAGGCACGTGCAGGT, which “relative binding free energy” value is on record?
A: -0.17 kcal/mol

Q: GGGTTCACGTGAGAGA was tested. Which “relative binding free energy” value did it give?
A: 0.37 kcal/mol

Q: Which “relative binding free energy” value does the source give for TGGCTCACGTGGTGCG here?
A: 0.06 kcal/mol

Q: For AGTTACACGTGTAATG, which “relative binding free energy” value is on record?
A: 0.11 kcal/mol

Q: Which “relative binding free energy” value does the source give for GATTACACGTGTTTTT here?
A: 0.26 kcal/mol

Q: AGTATCACGTGGTTCG was tested. Which “relative binding free energy” value did it give?
A: 0.04 kcal/mol

Q: For TTACTCACGTGGAAGT, which “relative binding free energy” value is on record?
A: 0.32 kcal/mol

Q: ATGGTCACGTGAGGGC was tested. Which “relative binding free energy” value did it give?
A: 0.28 kcal/mol

Q: With GTTTACACGTGGGTGT as the sequence, how does the “relative binding free energy” value read?
A: 0.05 kcal/mol

Q: TGGCGCACGTGGTGGG was tested. Which “relative binding free energy” value did it give?
A: -0.12 kcal/mol

Q: GGAGACACGTGTGGTA was tested. Which “relative binding free energy” value did it give?
A: 0.03 kcal/mol

Q: ATTAACACGTGACGGT was tested. Which “relative binding free energy” value did it give?
A: 0.18 kcal/mol

Q: Which “relative binding free energy” value does the source give for GGTATCACGTGTCGAG here?
A: 0.14 kcal/mol

Q: How did the “relative binding free energy” value turn out when GGTTTCACGTGGGATG was run?
A: 0.3 kcal/mol

Q: Which “relative binding free energy” value does the source give for TACTGCACGTGAGGGA here?
A: 0.18 kcal/mol

Q: Which “relative binding free energy” value does the source give for GACAGCACGTGGTGGA here?
A: 0.02 kcal/mol

Q: With ACGGCCACGTGAGGTT as the sequence, how does the “relative binding free energy” value read?
A: 0.36 kcal/mol

Q: Which “relative binding free energy” value does the source give for AGATTCACGTGTTAGT here?
A: 0.32 kcal/mol

Q: For CATGTCACGTGTAAGT, which “relative binding free energy” value is on record?
A: 0.16 kcal/mol

Q: CGTATCACGTGATGGT was tested. Which “relative binding free energy” value did it give?
A: 0.23 kcal/mol

Q: Which “relative binding free energy” value does the source give for AGGGGCACGTGGGTCG here?
A: -0.23 kcal/mol

Q: With GCGTCCACGTGTTGGT as the sequence, how does the “relative binding free energy” value read?
A: 0.14 kcal/mol

Q: Which “relative binding free energy” value does the source give for TGGTTCACGTGTAGAC here?
A: 0.32 kcal/mol

Q: How did the “relative binding free energy” value turn out when ATGTGCACGTGGAGAT was run?
A: -0.12 kcal/mol

Q: With TGTCTCACGTGCGGTT as the sequence, how does the “relative binding free energy” value read?
A: 0.11 kcal/mol

Q: With GTGAGCACGTGTATGA as the sequence, how does the “relative binding free energy” value read?
A: 0.03 kcal/mol

Q: TTATTCACGTGTTTAC was tested. Which “relative binding free energy” value did it give?
A: 0.24 kcal/mol

Q: Which “relative binding free energy” value does the source give for CTGTCCACGTGATGGT here?
A: 0.19 kcal/mol

Q: For ACATTCACGTGATTGA, which “relative binding free energy” value is on record?
A: 0.49 kcal/mol

Q: How did the “relative binding free energy” value turn out when GATACCACGTGTTGGT was run?
A: -0.05 kcal/mol

Q: How did the “relative binding free energy” value turn out when TACTTCACGTGTAAGT was run?
A: 0.28 kcal/mol

Q: For GTGGACACGTGACGGT, which “relative binding free energy” value is on record?
A: 0.22 kcal/mol

Q: TTTAGCACGTGGGAAC was tested. Which “relative binding free energy” value did it give?
A: 0.03 kcal/mol

Q: GTTTCCACGTGAATTT was tested. Which “relative binding free energy” value did it give?
A: 0.31 kcal/mol

Q: For GAGGGCACGTGAGAAT, which “relative binding free energy” value is on record?
A: 0.16 kcal/mol
